This is one part of the list.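 How the source made its calls: active = permutation test q below 0.05 after Benjamini-Hochberg correction; inactive = q of 0.05 or more.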
test system: U2OS; assay: mean average precision of replicate retrieval against DMSO controls (Cell Painting phenotypic activity) (fraction (0-1)); higher = stronger, more reproducible morphological phenotype distinct from DMSO; extreme values may be limits of the assay; details: 48 h; 5 µM
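Further: cosine similarity of well-level aggregated Cell Painting profiles ranks each compound's replicate wells against DMSO wells, four replicate plates, significance from 100,000 rank shuffles.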

| SMILES | mean average precision |
| --- | --- |
| CCCCNc1ncc2c(-c3ccc(CN4CCN(C)CC4)cc3)cn(C3CCC(O)CC3)c2n1 (stereo unspecified) | active: 1 |
| O=C1CC[C@@H](C(=O)O)N1 | active: 0.493 |
| CCCC[C@@H](NC(=O)[C@@H](Cc1cn(C(=O)OC)c2ccccc12)NC(=O)[C@H](CC(C)(C)C)NC(=O)N1[C@H](C)CCC[C@@H]1C)C(=O)O | inactive: 0.13 |
| O=C(CSc1nc2c(c(=O)n1-c1ccccc1)SCC2)Nc1ccc(-c2ccccc2)cn1 | active: 0.702 |
| CCCCCCCCCCCCCCCCOc1nc2ccc(C)cc2c(=O)o1 | inactive: 0.0714 |
| Cc1cccc(-c2[nH]c(C(C)(C)C)nc2-c2ccc3c(c2)OCO3)n1 | active: 1 |

Source: the supplement of paper PMC11166567
